This note sets out measurements from the supplement of paper PMC10126150.

Values marked as one replicate rest on one cluster of the flow cell; about a third of the high ones do not repeat.

This series relates to ATP. Kind of series: switch fluorescence ratio, 500 uM ATP over buffer (Cy3 cluster intensity, sum of 5 cycles each) (fold (ratio)); higher = stronger signal-on switching upon ATP binding; sequences stand for … in TCGTCGGCAGCGTCAGATGTGTATAAGAGACAGTTTTTTTTTTTTTTTTTTTTTTTTT…TC. Conditions: aptamer strand: ATP DNA aptamer (quencher-CACCTGGGGGAGTATTGCGGAGGAAGG + anchor), 100 nM annealed; ATP concentration: 500 uM; one replicate. In short, it runs like this: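 Five buffer/ATP imaging cycles were run on Cy3-labelled switching-strand clusters on a modified Illumina MiSeq flow-cell, with NaOH stripping and re-annealing between cycles. In each cycle, clusters annealed to 100 nM quencher-labelled ATP aptamer were imaged in selection buffer, then after 15 min with 500 uM ATP at 22 °C. Per cluster, the fluorescence ratio is summed target-cycle over summed buffer-cycle Cy3 intensity, averaged per switch-domain sequence. Only clusters within 100-1000 RFU were kept.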
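Further: ATP exposure 15 min at 22 °C before imaging.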

As to TTATTTAGAT, the switch fluorescence ratio stood at 1.03.

As for ATATATTGAA, the switch fluorescence ratio was 0.979.

Turning to CGCTACCGTG, the switch fluorescence ratio was 1.02.

Take CTCAGTAAGT: the switch fluorescence ratio came to 1.08.

For AGGGAAGGTG, the switch fluorescence ratio was 1.32.

TCTTGAAATC: the switch fluorescence ratio turned out to be 1.01.

On to ACATGAGATG, for which the switch fluorescence ratio was found to be 1.01.

Turning to GAATTGTCGT, the switch fluorescence ratio was 0.977.

As to CAACACCGCT, the switch fluorescence ratio was 1.18.

For the sequence AAAACGGAGC, the switch fluorescence ratio is 1.48.

CTACTCAGA: the switch fluorescence ratio is 1.04.

For the sequence GCGTTTGAGT, the switch fluorescence ratio amounted to 0.991.

CGTGGAAGGT: the switch fluorescence ratio came to 0.959.

For the sequence TGTGTTTGA, the switch fluorescence ratio was found to be 0.969.

As for TTTGACCCGC, the switch fluorescence ratio was determined as 1.1.

For the sequence CATTGGAGAG, the switch fluorescence ratio amounted to 1.03.

As to CACCGGGGAT, the switch fluorescence ratio is 1.14.

As to TTTGCGCAGT, the switch fluorescence ratio was found to be 1.15.

For the sequence TACATAGGGG, the switch fluorescence ratio amounted to 1.02.

For the sequence CCACAGGTAG, the switch fluorescence ratio was found to be 1.11.

Consider CTGCTGCCTG, for which the switch fluorescence ratio turned out to be 0.991.

Regarding GTGCTAGGCA, the switch fluorescence ratio was 0.984.

For the sequence TATATAATCC, the switch fluorescence ratio was 1.08.

Take TGACGCCCAC: the switch fluorescence ratio is 1.95.

GTAAAGCTCC: the switch fluorescence ratio is 1.23.

As for GTATCGGAGG, the switch fluorescence ratio amounted to 1.02.

For AACGTGCACG, the switch fluorescence ratio is 1.01.

For the sequence ATCCCGCCCG, the switch fluorescence ratio worked out at 1.07.

In the case of TGAGGACGTT, the switch fluorescence ratio was found to be 0.943.

In the case of TCGCGACGAA, the switch fluorescence ratio was 1.04.

As to CTGGGTAGG, the switch fluorescence ratio is 1.01.

For CGATATTGCG, the switch fluorescence ratio came out at 1.03.

For CGCGCCGATT, the switch fluorescence ratio is 1.05.

In the case of GCATTGCGAA, the switch fluorescence ratio came out at 0.951.

With GGTGTACCCC, the switch fluorescence ratio is 1.03.

In the case of TGACCTAATG, the switch fluorescence ratio came to 1.

Take AAAAGAGCCT: the switch fluorescence ratio was found to be 1.05.

In the case of TAGGCTATCT, the switch fluorescence ratio came to 1.09.

As to TTCTTCCCTC, the switch fluorescence ratio worked out at 1.12.

For the sequence TGTAATAGGT, the switch fluorescence ratio worked out at 0.989.

As for CTGGGACTGC, the switch fluorescence ratio came to 1.01.

In the case of CGTATCTTTG, the switch fluorescence ratio worked out at 0.975.

As to TACCGTGAGG, the switch fluorescence ratio was determined as 1.02.

For CAATATTGAT, the switch fluorescence ratio was 0.95.

As for CTAGTTTCCA, the switch fluorescence ratio stood at 0.962.

ACATTACCGT: the switch fluorescence ratio is 1.38.

Take AACCTTCTCT: the switch fluorescence ratio amounted to 1.57.

As to TTGGCCTAAC, the switch fluorescence ratio amounted to 1.07.

CGGATGTCCA: the switch fluorescence ratio was determined as 1.02.

For CTTTGATAAA, the switch fluorescence ratio is 0.979.

On to GAATGGTTTA, for which the switch fluorescence ratio was 0.979.

Turning to CAGTATGATA, the switch fluorescence ratio was 1.

On to GCGGTTGGCG, for which the switch fluorescence ratio is 1.

As for ATCTACTGCT, the switch fluorescence ratio was 1.

Consider TACACAATCG, for which the switch fluorescence ratio came to 1.

On to TCGCTGTACC, for which the switch fluorescence ratio came out at 1.88.

Take GCGCCGGAAA: the switch fluorescence ratio turned out to be 1.06.

As for TTCTGACACA, the switch fluorescence ratio was determined as 1.09.

In the case of AGCCTGCTGG, the switch fluorescence ratio was 1.01.

As to AAACGACAGT, the switch fluorescence ratio came out at 1.01.

AGATCCCAGC: the switch fluorescence ratio is 1.02.

Turning to CAATTCATCA, the switch fluorescence ratio stood at 1.03.

CATGGCCGAT: the switch fluorescence ratio stood at 0.99.

For the sequence ATACGTTAAT, the switch fluorescence ratio was 1.22.

With GTTTTAACTG, the switch fluorescence ratio was determined as 0.998.

Consider TACCGGGATT, for which the switch fluorescence ratio stood at 1.02.

On to TCGGGGGTA, for which the switch fluorescence ratio amounted to 1.

For ATCGAGCACG, the switch fluorescence ratio came out at 1.03.

For AGCGGCATCA, the switch fluorescence ratio came out at 0.998.

In the case of GGGGATCAAC, the switch fluorescence ratio worked out at 0.967.

Take TCAGTTGAA: the switch fluorescence ratio turned out to be 1.02.

Consider CCTATATACC, for which the switch fluorescence ratio was 1.15.

On to AGGTTGAG, for which the switch fluorescence ratio came to 0.978.

Take GGATCATGGG: the switch fluorescence ratio came to 0.926.

In the case of ATAGAACTA, the switch fluorescence ratio worked out at 0.97.

On to AGCGCGCTTT, for which the switch fluorescence ratio was 1.03.

For the sequence CGGATTTACA, the switch fluorescence ratio came out at 0.974.

Turning to TTGACAGTTT, the switch fluorescence ratio worked out at 1.01.

For AGTTTGACTT, the switch fluorescence ratio came to 1.01.

For the sequence GAGGACCGGG, the switch fluorescence ratio is 0.992.

Take GGTATTTGTC: the switch fluorescence ratio came out at 1.01.

With TTCAAGCAAT, the switch fluorescence ratio turned out to be 2.71.

Take CACGGTATTC: the switch fluorescence ratio is 1.22.

With GGTAAAGTGG, the switch fluorescence ratio came out at 1.

On to TAAGTCGGC, for which the switch fluorescence ratio turned out to be 0.97.

For TACGTCATAT, the switch fluorescence ratio turned out to be 1.14.

As to CGGAGATGTT, the switch fluorescence ratio stood at 0.995.

As to GGAGGGCGTT, the switch fluorescence ratio was 0.976.

For the sequence TGTTAATTTT, the switch fluorescence ratio turned out to be 1.01.

TAGCAATTTA: the switch fluorescence ratio was 1.27.

Turning to TCATACACCT, the switch fluorescence ratio stood at 1.22.

Consider GCATGATTA, for which the switch fluorescence ratio stood at 0.993.

ATGGTTATAA: the switch fluorescence ratio is 0.971.

On to ATGGTGGGAA, for which the switch fluorescence ratio was 0.954.

For the sequence CACATCCGAT, the switch fluorescence ratio turned out to be 1.05.

For GCCTTGAAGA, the switch fluorescence ratio came to 1.

Turning to ATCCAACTAT, the switch fluorescence ratio came out at 1.02.

For the sequence TAATTGGT, the switch fluorescence ratio was 0.982.

In the case of ACTTAGACTC, the switch fluorescence ratio was 1.08.

For AGCGCGCTA, the switch fluorescence ratio amounted to 1.03.

CAAAGTATGC: the switch fluorescence ratio was 1.05.

As to GGCACTATTA, the switch fluorescence ratio was 1.02.

As for GAATTTCGT, the switch fluorescence ratio came to 1.01.

With CTATGGGGAC, the switch fluorescence ratio came out at 1.

Take AGTGACGGTG: the switch fluorescence ratio worked out at 0.996.

In the case of TCGCTCGGAT, the switch fluorescence ratio came to 1.03.

For the sequence CGGAGTCATT, the switch fluorescence ratio is 1.48.

Regarding ATTAACATTT, the switch fluorescence ratio is 1.01.

For the sequence TCGACAGGGC, the switch fluorescence ratio amounted to 1.03.

As for ATTCAAATTA, the switch fluorescence ratio is 1.05.

ACTCGGATCT: the switch fluorescence ratio came out at 0.99.

Regarding TAGTCTTATA, the switch fluorescence ratio was 1.

Turning to GAGGGGTATA, the switch fluorescence ratio was found to be 1.02.

Take GAATTCCATT: the switch fluorescence ratio was 0.993.

As to TGGTACTAAG, the switch fluorescence ratio came out at 1.05.

Consider ACGAGGAGCA, for which the switch fluorescence ratio worked out at 1.03.

As for AGATACAACG, the switch fluorescence ratio stood at 1.07.

As for TCATCTAATC, the switch fluorescence ratio stood at 1.04.

As to CCACAGGCCG, the switch fluorescence ratio was found to be 0.965.

On to AAATCGGCTT, for which the switch fluorescence ratio was 1.02.
